The list shows a part of the results. Values come from read counts of a selection and are noisy.
Each sequence was assayed on Drosophila AGO1 (endogenous, S2-R+ lysate) (assay: AGO1 loading enrichment factor (IP read count / input read count, not library-size normalised) (ratio); higher = more efficient loading into AGO1). Conditions: randomized region: 5' 5N of miR-317 loop.
Protocol: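 HISSA: 5'-phosphorylated, 32P-labelled 20-nt ssRNA oligos (miR-317 loop, first 5 nt randomized, constant 3' part TGAAATGCAAGCAAG as printed in methods; DNA letters for RNA) incubated 1 h at 25°C in S2-R+ cell lysate. Endogenous AGO1 was immunopurified with anti-AGO1 and bound oligos were sequenced after splinted ligation.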
With TGATGTGAAATGCAAGCAAG the “AGO1 loading enrichment factor” value was 0.15.
AGCGTTGAAATGCAAGCAAG was tested, and the “AGO1 loading enrichment factor” value was 0.0823.
In the case of AGCTGTGAAATGCAAGCAAG, the “AGO1 loading enrichment factor” value is reported as 0.0535.
In the case of AACGATGAAATGCAAGCAAG, the “AGO1 loading enrichment factor” value is reported as 0.298.
CAGGATGAAATGCAAGCAAG was tested, and the “AGO1 loading enrichment factor” value was 0.186.
For GCCTGTGAAATGCAAGCAAG, the “AGO1 loading enrichment factor” value was 0.0232.
ATAAATGAAATGCAAGCAAG was tested, and the “AGO1 loading enrichment factor” value was 0.155.
AGAGATGAAATGCAAGCAAG was tested, and the “AGO1 loading enrichment factor” value was 0.132.
For AAATTTGAAATGCAAGCAAG, the “AGO1 loading enrichment factor” value was 0.077.
AGCCGTGAAATGCAAGCAAG was tested, and the “AGO1 loading enrichment factor” value was 0.154.
With TCGCTTGAAATGCAAGCAAG the “AGO1 loading enrichment factor” value was 0.87.
TAGATTGAAATGCAAGCAAG was tested, and the “AGO1 loading enrichment factor” value was 0.322.
In the case of GTATTTGAAATGCAAGCAAG, the “AGO1 loading enrichment factor” value is reported as 0.0812.
For GGGTGTGAAATGCAAGCAAG, the “AGO1 loading enrichment factor” value was 0.59.
GTCGCTGAAATGCAAGCAAG was tested, and the “AGO1 loading enrichment factor” value was 0.0764.
GCCGGTGAAATGCAAGCAAG was tested, and the “AGO1 loading enrichment factor” value was 0.117.
With TAGTCTGAAATGCAAGCAAG the “AGO1 loading enrichment factor” value was 0.418.
In the case of TATGTTGAAATGCAAGCAAG, the “AGO1 loading enrichment factor” value is reported as 0.334.
With TCACATGAAATGCAAGCAAG the “AGO1 loading enrichment factor” value was 0.381.
CCAACTGAAATGCAAGCAAG was tested, and the “AGO1 loading enrichment factor” value was 0.178.
With AGTCATGAAATGCAAGCAAG the “AGO1 loading enrichment factor” value was 0.126.
With TCTGGTGAAATGCAAGCAAG the “AGO1 loading enrichment factor” value was 0.331.
CCGCATGAAATGCAAGCAAG was tested, and the “AGO1 loading enrichment factor” value was 0.0573.
With CGTCTTGAAATGCAAGCAAG the “AGO1 loading enrichment factor” value was 0.00399.
ATTCCTGAAATGCAAGCAAG was tested, and the “AGO1 loading enrichment factor” value was 0.37.
TAAGGTGAAATGCAAGCAAG was tested, and the “AGO1 loading enrichment factor” value was 0.379.
For ACCAGTGAAATGCAAGCAAG, the “AGO1 loading enrichment factor” value was 0.214.
In the case of TGATCTGAAATGCAAGCAAG, the “AGO1 loading enrichment factor” value is reported as 0.23.
For GATTTTGAAATGCAAGCAAG, the “AGO1 loading enrichment factor” value was 0.172.
CTATGTGAAATGCAAGCAAG was tested, and the “AGO1 loading enrichment factor” value was 0.0429.
With ACTCATGAAATGCAAGCAAG the “AGO1 loading enrichment factor” value was 0.247.
In the case of TAACGTGAAATGCAAGCAAG, the “AGO1 loading enrichment factor” value is reported as 0.365.
With CGAGGTGAAATGCAAGCAAG the “AGO1 loading enrichment factor” value was 0.29.
For GCCGATGAAATGCAAGCAAG, the “AGO1 loading enrichment factor” value was 0.17.
With GCCAATGAAATGCAAGCAAG the “AGO1 loading enrichment factor” value was 0.132.
AATCCTGAAATGCAAGCAAG was tested, and the “AGO1 loading enrichment factor” value was 0.375.
In the case of CTTTTTGAAATGCAAGCAAG, the “AGO1 loading enrichment factor” value is reported as 0.0868.
For GTTCATGAAATGCAAGCAAG, the “AGO1 loading enrichment factor” value was 0.217.
GACGGTGAAATGCAAGCAAG was tested, and the “AGO1 loading enrichment factor” value was 19.
For AGTGTTGAAATGCAAGCAAG, the “AGO1 loading enrichment factor” value was 0.108.
With AGGTCTGAAATGCAAGCAAG the “AGO1 loading enrichment factor” value was 0.164.
CCGATTGAAATGCAAGCAAG was tested, and the “AGO1 loading enrichment factor” value was 0.171.
For CCCCGTGAAATGCAAGCAAG, the “AGO1 loading enrichment factor” value was 0.0175.
For CATTTTGAAATGCAAGCAAG, the “AGO1 loading enrichment factor” value was 0.0136.
For TCCTATGAAATGCAAGCAAG, the “AGO1 loading enrichment factor” value was 0.185.
In the case of AGGATTGAAATGCAAGCAAG, the “AGO1 loading enrichment factor” value is reported as 0.133.
With ATTGCTGAAATGCAAGCAAG the “AGO1 loading enrichment factor” value was 0.115.
With TACTCTGAAATGCAAGCAAG the “AGO1 loading enrichment factor” value was 0.167.
In the case of CGAAGTGAAATGCAAGCAAG, the “AGO1 loading enrichment factor” value is reported as 0.0901.
With GTAACTGAAATGCAAGCAAG the “AGO1 loading enrichment factor” value was 0.115.
TAGTGTGAAATGCAAGCAAG was tested, and the “AGO1 loading enrichment factor” value was 0.27.
GGGAATGAAATGCAAGCAAG was tested, and the “AGO1 loading enrichment factor” value was 0.392.
With AGTGATGAAATGCAAGCAAG the “AGO1 loading enrichment factor” value was 0.228.
With ACAGCTGAAATGCAAGCAAG the “AGO1 loading enrichment factor” value was 0.0331.
TTATCTGAAATGCAAGCAAG was tested, and the “AGO1 loading enrichment factor” value was 0.0825.
For CCGAATGAAATGCAAGCAAG, the “AGO1 loading enrichment factor” value was 0.222.
CGCAGTGAAATGCAAGCAAG was tested, and the “AGO1 loading enrichment factor” value was 0.021.
With GCCCATGAAATGCAAGCAAG the “AGO1 loading enrichment factor” value was 0.0204.
With CCATTTGAAATGCAAGCAAG the “AGO1 loading enrichment factor” value was 0.151.
TATATTGAAATGCAAGCAAG was tested, and the “AGO1 loading enrichment factor” value was 0.278.
For TAATCTGAAATGCAAGCAAG, the “AGO1 loading enrichment factor” value was 0.339.
In the case of TTATTTGAAATGCAAGCAAG, the “AGO1 loading enrichment factor” value is reported as 0.235.
In the case of CCACGTGAAATGCAAGCAAG, the “AGO1 loading enrichment factor” value is reported as 0.245.
In the case of GCGTTTGAAATGCAAGCAAG, the “AGO1 loading enrichment factor” value is reported as 0.0387.
For TCCGGTGAAATGCAAGCAAG, the “AGO1 loading enrichment factor” value was 0.24.
With TCGTATGAAATGCAAGCAAG the “AGO1 loading enrichment factor” value was 0.133.
In the case of ATATGTGAAATGCAAGCAAG, the “AGO1 loading enrichment factor” value is reported as 0.139.
With AGCTCTGAAATGCAAGCAAG the “AGO1 loading enrichment factor” value was 0.0788.
With GTAATTGAAATGCAAGCAAG the “AGO1 loading enrichment factor” value was 0.16.
With TCGCGTGAAATGCAAGCAAG the “AGO1 loading enrichment factor” value was 0.439.
In the case of TCTTATGAAATGCAAGCAAG, the “AGO1 loading enrichment factor” value is reported as 0.0931.
For GCAATTGAAATGCAAGCAAG, the “AGO1 loading enrichment factor” value was 0.052.
In the case of ATGCTTGAAATGCAAGCAAG, the “AGO1 loading enrichment factor” value is reported as 0.272.
In the case of CTGGGTGAAATGCAAGCAAG, the “AGO1 loading enrichment factor” value is reported as 0.238.
In the case of GCAGGTGAAATGCAAGCAAG, the “AGO1 loading enrichment factor” value is reported as 0.041.
For CCTTGTGAAATGCAAGCAAG, the “AGO1 loading enrichment factor” value was 0.0109.
With ATCCTTGAAATGCAAGCAAG the “AGO1 loading enrichment factor” value was 0.0418.
GAGCGTGAAATGCAAGCAAG was tested, and the “AGO1 loading enrichment factor” value was 0.107.
For GCGGGTGAAATGCAAGCAAG, the “AGO1 loading enrichment factor” value was 0.231.
CGTAATGAAATGCAAGCAAG was tested, and the “AGO1 loading enrichment factor” value was 0.0961.
For TATCTTGAAATGCAAGCAAG, the “AGO1 loading enrichment factor” value was 0.676.
With ATAGTTGAAATGCAAGCAAG the “AGO1 loading enrichment factor” value was 0.215.
With CCATGTGAAATGCAAGCAAG the “AGO1 loading enrichment factor” value was 0.0907.
For ATATCTGAAATGCAAGCAAG, the “AGO1 loading enrichment factor” value was 0.136.
With CCACATGAAATGCAAGCAAG the “AGO1 loading enrichment factor” value was 0.0436.
In the case of CTGACTGAAATGCAAGCAAG, the “AGO1 loading enrichment factor” value is reported as 0.152.
GTTGATGAAATGCAAGCAAG was tested, and the “AGO1 loading enrichment factor” value was 0.119.
AGTTTTGAAATGCAAGCAAG was tested, and the “AGO1 loading enrichment factor” value was 0.0932.
With TAGCTTGAAATGCAAGCAAG the “AGO1 loading enrichment factor” value was 0.881.
ACTGATGAAATGCAAGCAAG was tested, and the “AGO1 loading enrichment factor” value was 0.209.
For TATTATGAAATGCAAGCAAG, the “AGO1 loading enrichment factor” value was 0.343.
In the case of CTTGTTGAAATGCAAGCAAG, the “AGO1 loading enrichment factor” value is reported as 0.00846.
With AAGTATGAAATGCAAGCAAG the “AGO1 loading enrichment factor” value was 0.124.
In the case of CTGTCTGAAATGCAAGCAAG, the “AGO1 loading enrichment factor” value is reported as 0.29.
GAAGCTGAAATGCAAGCAAG was tested, and the “AGO1 loading enrichment factor” value was 0.0371.
In the case of TGTGTTGAAATGCAAGCAAG, the “AGO1 loading enrichment factor” value is reported as 0.1.
For CGCCGTGAAATGCAAGCAAG, the “AGO1 loading enrichment factor” value was 0.0762.
With AGTGCTGAAATGCAAGCAAG the “AGO1 loading enrichment factor” value was 0.042.
In the case of GACGATGAAATGCAAGCAAG, the “AGO1 loading enrichment factor” value is reported as 19.5.
With TCTGTTGAAATGCAAGCAAG the “AGO1 loading enrichment factor” value was 0.564.
For AGGTGTGAAATGCAAGCAAG, the “AGO1 loading enrichment factor” value was 0.323.
In the case of GAGTTTGAAATGCAAGCAAG, the “AGO1 loading enrichment factor” value is reported as 0.0989.
In the case of CAGAGTGAAATGCAAGCAAG, the “AGO1 loading enrichment factor” value is reported as 0.168.
For TGAGATGAAATGCAAGCAAG, the “AGO1 loading enrichment factor” value was 0.137.
For GTGATTGAAATGCAAGCAAG, the “AGO1 loading enrichment factor” value was 0.236.
ACTCCTGAAATGCAAGCAAG was tested, and the “AGO1 loading enrichment factor” value was 0.559.
GGTGATGAAATGCAAGCAAG was tested, and the “AGO1 loading enrichment factor” value was 1.02.
With CAGCTTGAAATGCAAGCAAG the “AGO1 loading enrichment factor” value was 0.
ACCACTGAAATGCAAGCAAG was tested, and the “AGO1 loading enrichment factor” value was 0.0688.
In the case of ATCTGTGAAATGCAAGCAAG, the “AGO1 loading enrichment factor” value is reported as 0.141.
For TTCTATGAAATGCAAGCAAG, the “AGO1 loading enrichment factor” value was 0.268.
In the case of CTGTGTGAAATGCAAGCAAG, the “AGO1 loading enrichment factor” value is reported as 0.00624.
In the case of AGCTTTGAAATGCAAGCAAG, the “AGO1 loading enrichment factor” value is reported as 0.0714.
In the case of AGATCTGAAATGCAAGCAAG, the “AGO1 loading enrichment factor” value is reported as 0.123.
AACTTTGAAATGCAAGCAAG was tested, and the “AGO1 loading enrichment factor” value was 0.115.
For TCTTGTGAAATGCAAGCAAG, the “AGO1 loading enrichment factor” value was 0.491.
With GATTCTGAAATGCAAGCAAG the “AGO1 loading enrichment factor” value was 0.176.
In the case of GTGTTTGAAATGCAAGCAAG, the “AGO1 loading enrichment factor” value is reported as 0.0268.
For TTAAGTGAAATGCAAGCAAG, the “AGO1 loading enrichment factor” value was 0.324.
For GTCAATGAAATGCAAGCAAG, the “AGO1 loading enrichment factor” value was 0.165.
ATCCGTGAAATGCAAGCAAG was tested, and the “AGO1 loading enrichment factor” value was 0.185.
TGGTTTGAAATGCAAGCAAG was tested, and the “AGO1 loading enrichment factor” value was 0.0783.
For CCAGATGAAATGCAAGCAAG, the “AGO1 loading enrichment factor” value was 0.139.
With AACTGTGAAATGCAAGCAAG the “AGO1 loading enrichment factor” value was 0.11.
With AAGCTTGAAATGCAAGCAAG the “AGO1 loading enrichment factor” value was 0.00617.

— the supplement of paper PMC6451100
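Further: S2-R+ lysate came from cells stably expressing FLAG-tagged AGO2, enrichment per 5N variant computed with FASTAptamer, reads lacking the constant 3′ segment discarded.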
